This note sets out measurements from ChEMBL document CHEMBL4888484, “Replenishing the malaria drug discovery pipeline: Screening and hit evaluation of the MMV Hit Generation Library 1 (HGL1) against asexual blood stage Plasmodium falciparum ,using a nano luciferase reporter read-out” (2022).

SMILES strings stand for the structures. About 540 (0.36%) of roughly 150,000 compounds showed an effect of 50% or more. The list shows a part of the results.

This assay deals with Plasmodium falciparum. Nature of the assay: Primary screen in NF54 nanoGlo assay, in single point, at 2uM, 72h; a lower Z score goes with more inhibition. Type of assay: functional, Erythrocyte. As to conditions: timepoint 72 hour.
By % Inhibition is commonly meant the change of the read-out against control, counted positive when it falls. With `Cc1nnc(CN(CCNS(=O)(=O)c2ccccc2)C(C)(C)C)o1`, the “% Inhibition” value was -3% and the Z score turned out to be 0.45.
Turning to `CCn1c(-c2cccc3cnccc23)nc2c1c(=O)[nH]c(=O)n2CC`, the “% Inhibition” value is on record as -2% and the Z score came to 0.18.
With `CNc1nc2c(c(C(=O)N3CCCC3)n1)CN(c1ncnc3ccsc13)CC2`, the “% Inhibition” value is given as -16% and the Z score is 2.11.
Taken in the same sequence, the figures for `CCNc1ncc(C(=O)N(Cc2ccccc2)[C@H]2CCS(=O)(=O)C2)cn1` were 4% and -0.63.
Take `Cc1ccccc1-n1nccc1[C@H]1OCC[C@@H]1C(=O)O`: the “% Inhibition” value is reported as 29% and the Z score is recorded as -3.33.
The matching figures for `CCCCNC(=O)N1C(C)CC2CCCCC21` (stereo not drawn): -7% and 1.04.
Taken in the same sequence, the figures for `COc1cc(NC(=O)[C@@H](c2cccnc2)C(C)C)cc(OC)c1` were -32% and 3.75.
Regarding `Cc1oc(C(C)C)nc1C(=O)N1CCC[C@@](O)(CO)C1`, the “% Inhibition” value is listed as -6% and the Z score was determined as 0.9.
For `CC1(C)CN(S(=O)(=O)c2ccc(C#N)c(F)c2)C1C1CCCO1` (stereo not drawn), the “% Inhibition” value is reported as -6% and the Z score is listed as 0.73.
Taken in the same sequence, the figures for `Cc1ccc(N2CN(CC(=O)Nc3cccc(F)c3)S(=O)(=O)c3cccnc32)cc1` were -19% and 2.01.
Taken in the same sequence, the figures for `Cc1cc(C)nc(CNc2nc3c(s2)c(C)nn3C)n1` were -13% and 1.52.
The matching figures for `COc1ccc2[nH]c3c(c2c1)CCN1C(=O)N(c2ccccc2C(=O)NC(C)CCc2ccccc2)C(=O)[C@]31C` (stereo partly drawn): 6% and -0.77.
Turning to `CN(C)C(=NCCC1CCCC1)N(C)C`, the “% Inhibition” value is recorded as -7% and the Z score worked out at 0.94.
Consider `O=C(Nc1cccc2ccccc12)N1CC[S+]([O-])CC1`, for which the “% Inhibition” value is -7% and the Z score turned out to be 1.3.
Taken in the same sequence, the figures for `C[C@@H]1CN(C(=O)c2cccn2C)CCN1C(=O)OC(C)(C)C` were -2% and 0.31.
The matching figures for `C[C@@H](Cc1cccs1)C(=O)NCc1ccc(S(N)(=O)=O)cc1`: -1% and 0.2.
Taken in the same sequence, the figures for `Cc1nn(C)c(C)c1C(=O)N1CC[C@H](c2ccc3c(c2)CCO3)C1` were -7% and 0.86.
`Cc1cnn(CC2CCCN2C(C)c2nc(C3CC3)no2)c1` (stereo not drawn): the “% Inhibition” value is on record as -1% and the Z score is 0.14.
On to `CN(Cc1cc(C#N)ccn1)Cc1cc(-c2ccccc2)n[nH]1`, for which the “% Inhibition” value is -19% and the Z score is 1.93.
The matching figures for `CCc1nnc(NC(=O)[C@]2(C(C)C)CNC(=O)C2)s1`: 19% and -2.21.
As to `CCOC(=O)CN1CC[C@@H](O)C[C@H]1C(=O)OC`, the “% Inhibition” value is -2% and the Z score amounted to 0.22.
Taken in the same sequence, the figures for `CC[C@H]1CCCCN1CC(=O)N(C)Cc1cnccn1` were -4% and 0.38.
As for `CCCc1nc(CN2CCS(=O)(=O)CC2)cs1`, the “% Inhibition” value was 9% and the Z score is on record as -0.99.
Taken in the same sequence, the figures for `COCCN1C[C@@H](C(=O)N2CCC(Oc3cccc(Cl)c3)CC2)CCC1=O` were -9% and 0.95.
Turning to `Cc1cc(NC(=O)CS(=O)(=O)C(C)C)cc(C)c1Br`, the “% Inhibition” value was found to be 3% and the Z score is reported as -0.35.
Turning to `O=C(NCc1ccccc1Cl)[C@@H]1C[C@H](n2cnnn2)CN1C1CCCC1`, the “% Inhibition” value is recorded as -6% and the Z score is on record as 0.74.
The matching figures for `COC(=O)[C@H]1CCc2nnc(-c3cccc(S(C)(=O)=O)c3)n2C1`: 5% and -0.7.
The matching figures for `Cc1cc(C)c(CN2CCOC3(CCCC3)C2)cc1CN1CCN(C)CC1`: -6% and 0.87.
The matching figures for `CN(C)c1[nH]cnc2c3cc(F)ccc3nc1-2`: -28% and 3.31.
For `COc1cccc(Cc2nc(-c3nnn(-c4ccc(F)cc4)c3C)no2)c1`, the “% Inhibition” value is listed as -10% and the Z score turned out to be 1.87.
Take `O=C(CCN[C@H](c1ccccc1)C1CCC1)N1CCOCC1`: the “% Inhibition” value is reported as -10% and the Z score is 1.08.
The matching figures for `Cc1nc(O)nc(C)c1CCc1nc(C2CCCC2)nn1-c1ccccc1`: -15% and 1.64.
The matching figures for `COc1ccc(-c2cc(C(=O)N[C@H]3CCCc4ccccc43)c3ccccc3n2)cc1OC`: -13% and 2.09.
Consider `O=C(c1ccno1)N1CC(c2nc(-c3ccsc3)no2)C1`, for which the “% Inhibition” value is listed as -8% and the Z score came out at 0.93.
Take `CC(C)NC(=O)NCCn1nnc2cc(S(=O)(=O)NC(C)C)ccc21`: the “% Inhibition” value is given as -16% and the Z score was 1.64.
Taken in the same sequence, the figures for `CC(C)N(C(=O)CN1CCC[C@H]1c1ccc2c(c1)OCCCO2)c1ccccc1` were -38% and 4.48.
Taken in the same sequence, the figures for `CCn1nc(-c2ccccn2)nc1CCC(N)=O` were -5% and 0.99.
`CN(CCn1cccn1)Cc1cn(C(C)(C)C)nn1`: the “% Inhibition” value is reported as -12% and the Z score is 2.
In the case of `COc1ccccc1N1CCN(CC(=O)O)C1=O`, the “% Inhibition” value was found to be 26% and the Z score was -3.28.
The matching figures for `Cn1c(CNCC2CC2)nc2ccccc21`: -17% and 1.7.
The matching figures for `O=C(NC1CCS(=O)(=O)CC1)c1ccccc1-c1ccccc1`: -15% and 1.24.
As for `COCCN(CC(=O)N(C)C)C(=O)c1cc(Cl)cc(Cl)c1`, the “% Inhibition” value is listed as -8% and the Z score worked out at 0.83.
The matching figures for `O=C(NCCN1Cc2cc(Cl)ccc2OCC1=O)c1cccc(OC(F)(F)F)c1`: -13% and 2.21.
The matching figures for `Cc1cc(CNC(=O)N2CCC(C)CC2)no1`: -3% and 0.55.
